Among all 350,000 compounds or so, about 600 (0.17%) were called active. This list was built around the results that the source calls inconclusive (neither active nor inactive); the mix of calls is not that of the screen.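 How the source made its calls: active means every replicate shows inhibition of at least 40%; inconclusive means mean inhibition at least 40% but some replicate below; inactive means the rest.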
assay: inhibitors of PGC1a acetylation signal, primary screen, cell-based, U2OS, AlphaScreen, inhibitor mode (AID 651687); settings: AlphaScreen anti-acetyl-lysine, at 15.6 µM, hits give high values, with virally co-expressed GCN5 acetyltransferase;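 further: 0% = neutral control wells and 100% = positive control wells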

SMILES	inhibition
CCC(=O)N1CC2(C1)[C@@H](c1ccc(-c3ccc(F)cc3)cc1)[C@H](CO)N2C(=O)CC	inactive: -2.79%
Cc1cc(C)n(-c2nc(NC(C)(C)C)nc(NC(C)(C)C)n2)n1	inactive: 1.06%
C[C@@H]1CCCCO[C@@H](CN(C)CC2CC2)[C@H](C)CN([C@H](C)CO)C(=O)c2cc(NS(=O)(=O)c3ccccc3)ccc2O1	inconclusive: 56.4%
CC(C)c1ccc(-c2nnn(CC(=O)N3CCCCC3)n2)cc1	inconclusive: 40.1%
CO[C@H]1CN(C)C(=O)c2ccc(NC(=O)Nc3ccccc3F)cc2OC[C@@H](C)NC[C@@H]1C	inconclusive: 48.7%
COc1ccc(S(=O)(=O)N(C)C[C@@H]2Oc3ccc(NS(=O)(=O)c4cn(C)cn4)cc3C(=O)N([C@H](C)CO)C[C@@H]2C)cc1	inconclusive: 52.5%
C[C@@H]1CN([C@@H](C)CO)S(=O)(=O)c2ccc(C3=CCCCC3)cc2O[C@H]1CN(C)C	inconclusive: 48.3%
O=C(Cc1cccnc1)N1CC(=O)N2[C@H](CO)[C@@H](c3ccc(C#CC4CCCCC4)cc3)[C@H]2C1	inconclusive: 50.5%
CN(C)c1ccc(C(=O)NC2(N3CCC3=O)CCCC2)cc1	inconclusive: 49.5%
COc1ccccc1-c1ccc([C@@H]2[C@@H](CO)N(C(C)=O)C23CN(C(C)=O)C3)cc1	inconclusive: 55%
C[C@H](O)C#Cc1cnc2c(c1)C(=O)N([C@@H](C)CO)C[C@H](C)[C@@H](CN(C)C(=O)c1ccc(F)cc1)O2	inactive: 3.34%
CCN(CCNc1ccc(Cl)cc1[N+](=O)[O-])C(=O)c1cc([N+](=O)[O-])c(N(C)C)cc1OC	inconclusive: 51.5%
CCC(=O)N1C[C@H](C)[C@@H](OC)CN(C)C(=O)c2ccc(NC(=O)Nc3ccccc3)cc2OC[C@@H]1C	inconclusive: 44.8%
Nc1c(C(=O)Nc2ccc(S(=O)(=O)N3CCCC3)cc2)sc2nc3ccc(OC(F)(F)F)cc3cc12	inactive: -3.76%
CC(C)CC#Cc1ccc2c(c1)O[C@@H](CN(C)Cc1ccc3c(c1)OCO3)[C@H](C)CN([C@H](C)CO)S2(=O)=O	active: 53.4%
C[C@H](NC(=O)C[C@H]1CC[C@@H](NC(=O)C2CC2)[C@H](CO)O1)c1ccccc1	inconclusive: 51.7%
COc1ccc2c(-c3ccccc3)cc(=O)[nH]c2c1	inconclusive: 41.9%
O=C(O)c1ccccc1C(=O)N1CCN(C(=O)c2ccccc2Cl)CC1	inconclusive: 49.5%
O=C1C=CC2(C=C1)O[C@H](Cc1ccccc1)[C@@H](Cc1ccccc1)O2	inconclusive: 40.8%
CCc1c(C)nc(N)nc1Cl	inconclusive: 46.8%
CC(=O)c1c(C)oc2ccc(N(C(C)=O)S(=O)(=O)c3ccc(Cl)c([N+](=O)[O-])c3)cc12	inconclusive: 61.3%
CCn1c2ccccc2c2cc(/C=N/n3c(-c4cc(C)[nH]n4)n[nH]c3=S)ccc21	inconclusive: 40.2%
COc1nc(OCCNS(=O)(=O)c2ccc(C)cc2)nc(N(C)C)n1	inconclusive: 52.2%
COc1cc(C(=O)NNC(=S)NC(=O)/C=C/c2ccccc2)cc(OC)c1OC	inactive: 2.25%

SMILES	inhibition
O=C(C[C@@H]1C=C[C@@H](NC(=O)Nc2ccc(C(F)(F)F)cc2)[C@H](CO)O1)NCc1ccccn1	inconclusive: 43.5%
C[C@H]1CN([C@@H](C)CO)C(=O)c2cc(-c3ccccc3)cnc2O[C@@H]1CN(C)C(=O)Cc1ccccn1	inactive: 11%
CNC(=O)C[C@@H]1CC[C@@H]2[C@H](COc3ccc(NC(=O)NC(C)C)cc3C(=O)N2C)O1	inactive: 2.47%
O=C(O)Cn1cc(C(=O)C(F)(F)F)c2ccccc21	inconclusive: 45.2%
C[C@@H]1CN([C@@H](C)CO)C(=O)c2cc(/C=C/c3ccccc3)cnc2O[C@@H]1CN(C)Cc1cccnc1	inconclusive: 46.3%
CC(C)(C)c1ccc(OCC(=O)NNC(=O)Nc2ccccc2)cc1	inconclusive: 43.2%
C=CCN=C1S/C(=C/c2ccc([N+](=O)[O-])cc2)C(=O)N1CC=C	inconclusive: 42.1%
C[C@H](CO)N1C[C@H](C)[C@@H](CN(C)Cc2cccnc2)Oc2cc(C3=CCCC3)ccc2S1(=O)=O	inconclusive: 50.5%
CCC(=O)Nc1cccc(C(=O)/C=C/c2ccccc2)c1	inconclusive: 40.6%
CN(Cc1c(F)cccc1Cl)c1nnnn1-c1ccccc1	inconclusive: 46.7%
Cc1cccc(Oc2nccc(C(F)(F)F)c2C(=O)Nc2ccc(F)cc2F)c1	active: 84.9%
O=c1c2cn(Cc3ccc(F)cc3)c3ccc(F)cc3c-2nn1Cc1ccc(F)cc1	inconclusive: 45.5%
CCc1nc(SCC(=O)N2c3ccccc3Sc3ccccc32)c2ccccc2n1	inconclusive: 43.4%
O=C(O)c1ccccc1NN=Cc1ccccc1	inactive: 3.84%
CCOc1ccccc1C(=O)NCCCCCC(=O)O	inconclusive: 41.8%
CC(C)CC#Cc1ccc([C@H]2[C@H](CO)N3C(=O)CN(C(=O)Nc4cc(F)ccc4F)C[C@@H]23)cc1	inconclusive: 57.1%
O=C(C[C@@H]1C[C@@H]2c3cc(NC(=O)CC4CC4)ccc3O[C@@H]2[C@H](CO)O1)NCc1ccccc1F	inactive: 0.946%
CCn1c2ccccc2c2cc(/C=N/NC(=O)c3ccccc3)ccc21	inconclusive: 43.1%
CSc1n[nH]c(NC(=O)c2c(-c3c(Cl)cccc3Cl)noc2C)n1	active: 64.7%
COC(=O)c1ccc2nc(C)cc(Nc3ccc(N(C)C)cc3)c2c1	inactive: -8.84%
Cc1cccc(NC(=O)c2ccc3c(c2)OCCO3)c1C	inactive: 13%
CCn1nnc(NC(=O)c2ccc(C(C)(C)C)cc2)n1	inconclusive: 41%
CCCCCCCCCSc1n[nH]c(N)n1	inconclusive: 25.4%
CO[C@H]1CN(C)C(=O)c2cc(NC(=O)NC(C)C)ccc2OC[C@H](C)N(Cc2ccc(-c3ccccn3)cc2)C[C@@H]1C	inconclusive: 61.6%

— PubChem BioAssay AID651687 (Broad Institute, 2012)
